# Results from the supplement of paper PMC10126150.
# Values marked as one replicate rest on one cluster of the flow cell; about a third of the high ones do not repeat.
# Tested on: ATP
# Test: switch fluorescence ratio, 500 uM ATP over buffer (Cy3 cluster intensity, sum of 5 cycles each) (fold (ratio)); higher = stronger signal-on switching upon ATP binding; sequences stand for … in TCGTCGGCAGCGTCAGATGTGTATAAGAGACAGTTTTTTTTTTTTTTTTTTTTTTTTT…TC
# Conditions: aptamer strand: ATP DNA aptamer (quencher-CACCTGGGGGAGTATTGCGGAGGAAGG + anchor), 100 nM annealed; ATP concentration: 500 uM; one replicate
# Outline: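 Between each of five buffer/ATP cycles, the flow-cell was stripped with NaOH and re-annealed. Each cycle imaged Cy3-labelled switching-strand clusters, annealed to 100 nM quencher-labelled ATP aptamer on a modified Illumina MiSeq flow-cell, first in selection buffer and then after 15 min with 500 uM ATP at 22 °C. The fluorescence ratio is summed target-cycle over summed buffer-cycle Cy3 intensity per cluster, averaged per switch-domain sequence, with clusters outside 100-1000 RFU excluded.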
# 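Also: ATP exposure 15 min at 22 °C before imaging.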
row,Sequence,switch fluorescence ratio
1,GTTATAGGGA,1.04
2,CAGGTCAAG,1.05
3,GTGTCGGGGC,1.02
4,ACCTAGTTGC,1.05
5,TTCGACTACC,1.18
6,ACACGCCTTT,1.01
7,TGGTGTTTAT,1.01
8,TATTTGGCGA,1.01
9,TCCGGCGTGT,1.05
10,GGGCTCGTGC,1.01
11,AGATGGCGGG,0.948
12,ATGGGTACCT,1.02
13,GCAGTAAGGC,1.32
14,TACGATTC,0.956
15,TGTGATGTAA,0.954
16,GAGGGGAAAG,1.06
17,GAAACGCCCG,1.07
18,GGAGTCGTGT,1
19,GCATTGTCGT,1.01
20,TTGTGGTGCT,0.995
21,CATGATAAAT,1.02
22,TACTTGGGTT,1.03
23,GGGCGACAAA,0.989

row,Sequence,switch fluorescence ratio
1,CAATCCGGGG,0.963
2,CTGTTTAAAT,1.01
3,GATGAAATGC,1.85
4,GATACCTGGT,1
5,GACGGTGGTG,0.934
6,TATAAAGGAA,0.997
7,ATAGCGTGA,1.05
8,GGTATGCTAG,1.03
9,AGCTTCGCGA,1.09
10,GTATATACTA,1.02
11,CAGTCAAGG,0.943
12,GATAATGTCC,1.03
13,GCCGATAAAG,1.01
14,GCAGATATCG,0.978
15,CGAGTTTCCT,1.03
16,CCGTTCAAC,1.75
17,TCGGACCGGT,1
18,ACCCGCTCTC,3.28
19,GAATGTTCAT,0.965
20,CGGTTGCATG,1.04
21,TGGCCTTATA,0.974
22,CCGGGACTTG,0.974
23,TTATAAAT,1.01

row,Sequence,switch fluorescence ratio
1,AGAGATTTTT,0.953
2,CACGTTATAT,1.18
3,CAGGGCGTCA,1
4,GGGATGATTA,0.961
5,ATGTCGAGTA,0.972
6,TCGTGGGGAA,1.01
7,TTGCCATTTC,0.998
8,TACTTGGCTG,1.12
9,GACTTTACAG,1.02
10,GGGCCCGGGG,0.967
11,TCGAAGTCCA,0.927
12,AATGTTGTAG,1.02
13,AGTCGTTGT,0.986
14,CAATGGCTTG,0.992
15,ATTAGTCGGC,0.999
16,CACATACGCA,1.22
17,TAAGCGCCGG,1.04
18,GCTAGCGTCA,1.02
19,ACACGAATGA,1.04
20,ACAAGCCATG,0.993
21,GGTGGTTTG,1.03
22,GTGGGACCTG,0.956
23,AAGTGGAACT,0.923

row,Sequence,switch fluorescence ratio
1,TTACGTATGC,1.49
2,AGCGCAGAAT,0.98
3,CTCCGGAGAT,1.04
4,CCCAACCCT,1.01
5,GACCTTACTA,1.48
6,TCGTTGGACA,0.986
7,CGAGTGCCGA,0.997
8,GGCGGAAACC,1.03
9,TAAGCCGTGT,1.01
10,AGCAGAGGTT,1.03
11,ATCATCCTTT,0.957
12,GTGGCGGCTT,1.01
13,GAGTCATCGT,1
14,ATAGCCCGAC,1.09
15,GGACGGGTAT,1.03
16,CTAGTTATTA,1.03
17,GACACCATAT,1.07
18,ACCGCAACT,4.26
19,TGTATGATAC,1.07
20,TCGCGCAGTG,1
21,GCGAGGTTTG,0.932
22,ATTTAGTAAG,0.991
23,GGTTATTTCC,0.993

row,Sequence,switch fluorescence ratio
1,GAGCATCTAA,1.02
2,GACGGGTCTG,0.975
3,ATCAATTATA,1
4,CCCGGGCTG,1.02
5,GAAAAGGTGT,1.03
6,CGACGATG,0.985
7,TACTTTCCAA,0.984
8,TAAATCATT,1.01
9,GAAGTCCGTG,1.05
10,GAGGCACGCG,1.02
11,GGGCCTGGAT,1.01
12,GCGGGTAAAT,0.963
13,CTAATAGAAT,0.961
14,TGGACAGTC,1.06
15,GGTTCGCATA,1.06
16,TTCACTTGGC,1.03
17,TACTTATG,1.01
18,GAGAGCCTA,0.975
19,AAGTTTGGAA,1.05
20,CCATGGGGAG,1.02
21,GAATCTAAGA,0.982
22,GTGGAAATGC,1.13
23,AGCGTACTGC,1.09

row,Sequence,switch fluorescence ratio
1,CTCTTAATAG,1.26
2,CTTCCGGACT,1.38
3,ACCGATCTAT,1.03
4,GACTTTTGTT,0.909
5,TAGGTTTCCC,0.95
6,TAGGCCAGGC,0.987
7,TGTATAAAGC,0.947
8,TTAGCCTTGC,1.03
9,TGACGGTCAT,0.984
10,GATGGCTGGT,0.949
11,CTCAAATTAT,1.09
12,AGGTCGTGTG,0.972
13,TGGTGTTCGT,0.977
14,TGGGTATTTA,1.08
15,TAGGCCTTGG,1.02
16,GGCGCGTCGT,1.01
17,CAGATGGGCT,0.995
18,GTATATTGTG,1.02
19,TTGTGTTAGA,1.03
20,GCTTTAGAA,0.93
21,CCGCTGTAGG,1.08
22,AGCGCCTTCA,1.26
23,GTTAGCAAGA,1.23

row,Sequence,switch fluorescence ratio
1,TAGTAGCAGC,1
2,TGGGAATAGC,2.26
3,TAAGAATCTT,0.985
4,GACTCGTGGG,1.01
5,CTAGCCCGTT,1
6,AAGAAGGCCA,0.962
7,TTCTGGCGTC,1.04
8,GTGCCCCACG,0.973
9,ACGAAAACGG,1.07
10,GGAACGTATG,1.04
11,CCTTTATGTT,1.03
12,CCCATCTGGT,1.06
13,CGTAAAGAAT,1.02
14,TTCCGCTTGT,1.27
15,GATAACCGAC,2.65
16,CTTGAGGGCA,1.01
17,TTGCCTTAAG,0.994
18,AGAATGTA,0.995
19,GGGTTGAAAG,0.996
20,TGCAGAG,1.01
